# Measurements reported in US20250051460A1 (Boehringer Ingelheim, published 2025).
# Read-outs that look alike come from different tables or passages of the source.
# T1: human VEGF-A (human, UniProt P15692-4 27-191)
# T1 sequence (looked up): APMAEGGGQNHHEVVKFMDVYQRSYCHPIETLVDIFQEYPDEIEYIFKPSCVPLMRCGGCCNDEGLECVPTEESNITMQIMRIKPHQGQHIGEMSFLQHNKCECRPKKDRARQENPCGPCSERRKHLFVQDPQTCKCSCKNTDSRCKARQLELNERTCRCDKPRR
# Tests used:
# Test in all cases: cell-based or functional assay
# human TrkB receptor [1] = biological target: T2, human TrkB receptor (human, UniProt Q16620 32-822)
# human VEGF-A [2] = biological target: T1, human VEGF-A
# human VEGF-A [3] = biological target: T1, human VEGF-A; remark: listed apart in the source
# human VEGF-A [4] = biological target: T1, human VEGF-A; remark: listed apart in the source
# human TrkB receptor [5] = biological target: T2, human TrkB receptor; remark: listed apart in the source
# human TrkB receptor [6] = biological target: T2, human TrkB receptor; remark: listed apart in the source
# rat TrkB receptor = rat TrkB receptor (rat, UniProt Q63604 32-821)
# Sequence of rat TrkB receptor (Q63604 32-821): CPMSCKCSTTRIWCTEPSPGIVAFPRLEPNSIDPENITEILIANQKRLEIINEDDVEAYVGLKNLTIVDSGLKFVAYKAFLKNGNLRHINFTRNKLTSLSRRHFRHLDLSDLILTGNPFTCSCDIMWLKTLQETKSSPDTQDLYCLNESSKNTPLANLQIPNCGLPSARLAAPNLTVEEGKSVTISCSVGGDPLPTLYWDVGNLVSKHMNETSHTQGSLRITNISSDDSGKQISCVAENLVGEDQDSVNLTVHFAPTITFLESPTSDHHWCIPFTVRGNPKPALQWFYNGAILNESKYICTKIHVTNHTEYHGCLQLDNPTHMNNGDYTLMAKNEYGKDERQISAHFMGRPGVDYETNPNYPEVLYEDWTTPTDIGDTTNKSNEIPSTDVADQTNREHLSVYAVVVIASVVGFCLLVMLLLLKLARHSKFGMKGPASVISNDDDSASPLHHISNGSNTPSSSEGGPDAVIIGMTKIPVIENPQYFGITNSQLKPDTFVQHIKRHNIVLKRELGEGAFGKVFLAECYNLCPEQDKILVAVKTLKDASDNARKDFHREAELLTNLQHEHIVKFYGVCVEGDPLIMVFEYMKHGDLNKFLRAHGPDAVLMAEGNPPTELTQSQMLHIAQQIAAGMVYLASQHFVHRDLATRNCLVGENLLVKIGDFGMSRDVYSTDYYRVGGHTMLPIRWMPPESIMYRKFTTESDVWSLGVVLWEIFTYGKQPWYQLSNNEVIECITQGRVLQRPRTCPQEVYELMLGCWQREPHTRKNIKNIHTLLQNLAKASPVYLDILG
# T2 sequence (Q16620 32-822): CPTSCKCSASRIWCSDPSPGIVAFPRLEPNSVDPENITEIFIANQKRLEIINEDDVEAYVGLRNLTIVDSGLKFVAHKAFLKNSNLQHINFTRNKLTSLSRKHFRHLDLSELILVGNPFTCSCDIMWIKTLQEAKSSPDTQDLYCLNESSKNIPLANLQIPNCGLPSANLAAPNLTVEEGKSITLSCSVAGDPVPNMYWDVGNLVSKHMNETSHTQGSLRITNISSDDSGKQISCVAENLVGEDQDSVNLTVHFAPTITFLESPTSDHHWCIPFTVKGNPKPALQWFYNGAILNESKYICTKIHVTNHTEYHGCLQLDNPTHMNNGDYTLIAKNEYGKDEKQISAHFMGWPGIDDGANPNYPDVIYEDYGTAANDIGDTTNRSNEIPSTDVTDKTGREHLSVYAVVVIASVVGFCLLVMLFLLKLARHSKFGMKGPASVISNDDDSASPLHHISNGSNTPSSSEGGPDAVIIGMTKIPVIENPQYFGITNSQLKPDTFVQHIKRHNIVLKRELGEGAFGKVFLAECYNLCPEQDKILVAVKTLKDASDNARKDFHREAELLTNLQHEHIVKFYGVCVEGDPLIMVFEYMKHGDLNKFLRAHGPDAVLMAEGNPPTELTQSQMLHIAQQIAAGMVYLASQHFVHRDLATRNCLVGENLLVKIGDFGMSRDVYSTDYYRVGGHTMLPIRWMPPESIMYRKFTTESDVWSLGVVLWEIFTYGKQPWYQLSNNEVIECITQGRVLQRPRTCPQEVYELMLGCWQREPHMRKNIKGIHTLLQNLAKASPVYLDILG
binder,measurement,setting,value
"TPP-14940 (bispecific antibody, human IgG1, kappa) heavy: EVQLVESGGGLVQPGGSLRLSCAASGYDFTHYGMNWVRQAPGKGLEWVGWINTYTGEPTYAADFKRRFTFSLDTSKSTAYLQMNSLRAEDTAVYYCAKYPYYYGTSHWYFDVWGQGTLVTVSSASTKGPSVFPLAPSSKSTSGGTAALGCLVKDYFPEPVTVSWNSGALTSGVHTFPAVLQSSGLYSLSSVVTVPSSSLGTQTYICNVNHKPSNTKVDKRV[in this place human IgG1 Fc with changes]GGSEGKSSGSGSESKSTGGSQVQLVQSGAEVKKPGASVKVSCKASGYTFTNYDIIWVRQAPGQGLEWMGYINPYNDGTKYNEKFKGRVTMTRDTSTSTVYMELSSLRSEDTAVYYCARLLKYRRFRYYAIDYWGQGTTVTVSSGGSEGKSSGSGSESKSTGGSDIQMTQSPSSLSASVGDRVTITCRTSENVYSNLAWYQQKPGKAPKLLIYAASNLQSGVPSRFSGSGSGTDYTFTISSLQPEDIATYYCQHFWGSPFTFGQGTKLEIK light: DIQLTQSPSSLSASVGDRVTITCSASQDISNYLNWYQQKPGKAPKVLIYFTSSLHSGVPSRFSGSGSGTDFTLTISSLQPEDFATYYCQQYSTVPWTFGQGTKVEIKRTVAAPSVFIFPPSDEQLKSGTASVVCLLNNFYPREAKVQWKVDNALQSGNSQESVTEQDSKDSTYSLSSTLTLSKADYEKHKVYACEVTHQGLSSPVTKSFNRGEC",EC50 (pERK),human TrkB receptor [1],0.475 nM
same,EC50 (pTrkB),human TrkB receptor [1],3.21 nM
same,"Bottom plateau (ERK1/2 phosphorylation, counts)",human VEGF-A [2],438 counts
same,"Bottom plateau (Src phosphorylation, counts)",human VEGF-A [2],4770 counts
same,IC50 (ERK1/2 phosphorylation),human VEGF-A [2],802 pM
same,IC50 (Src phosphorylation),human VEGF-A [2],276 pM
same,concentration for full inhibition of VEGF-induced HRMEC proliferation,human VEGF-A [3],0.25 nM
same,fold IC50 against Ranibizumab scFv molecules or TPP-11736,human VEGF-A [3],10 fold
same,"Bottom plateau (ERK1/2 phosphorylation, counts)",human VEGF-A [4],438 counts
same,"Bottom plateau (Src phosphorylation, counts)",human VEGF-A [4],4770 counts
same,IC50 (ERK1/2 phosphorylation),human VEGF-A [4],802 pM
same,IC50 (Src phosphorylation),human VEGF-A [4],276 pM
"TPP-19986 (bispecific antibody, human IgG1, kappa) heavy: EVQLVESGGGLVQPGGSLRLSCAASGYDFTHYGMNWVRQAPGKGLEWVGWINTYTGEPTYAADFKRRFTFSLDTSKSTAYLQMNSLRAEDTAVYYCAKYPYYYGTSHWYFDVWGQGTLVTVSSASTKGPSVFPLAPSSKSTSGGTAALGCLVKDYFPEPVTVSWNSGALTSGVHTFPAVLQSSGLYSLSSVVTVPSSSLGTQTYICNVNHKPSNTKVDKRV[in this place human IgG1 Fc with changes]GGGGSGGGGSQVQLVQSGAEVKKPGASVKVSCKASGYTFTNYDIIWVRQAPGQGLEWMGYINPYNDGTKYNEKFKGRVTMTRDTSTSTVYMELSSLRSEDTAVYYCARLLKYRRFRYYAIDYWGQGTTVTVSSGGSEGKSSGSGSESKSTGGSDIQMTQSPSSLSASVGDRVTITCRTSENVYSNLAWYQQKPGKAPKLLIYAASNLQSGVPSRFSGSGSGTDYTFTISSLQPEDIATYYCQHFWGSPFTFGQGTKLEIK light: DIQLTQSPSSLSASVGDRVTITCSASQDISNYLNWYQQKPGKAPKVLIYFTSSLHSGVPSRFSGSGSGTDFTLTISSLQPEDFATYYCQQYSTVPWTFGQGTKVEIKRTVAAPSVFIFPPSDEQLKSGTASVVCLLNNFYPREAKVQWKVDNALQSGNSQESVTEQDSKDSTYSLSSTLTLSKADYEKHKVYACEVTHQGLSSPVTKSFNRGEC",EC50 (pERK),human TrkB receptor [1],0.406 nM
same,EC50 (pTrkB),human TrkB receptor [1],2 nM
"TPP-19987 (bispecific antibody, human IgG1, kappa) heavy: EVQLVESGGGLVQPGGSLRLSCAASGYDFTHYGMNWVRQAPGKGLEWVGWINTYTGEPTYAADFKRRFTFSLDTSKSTAYLQMNSLRAEDTAVYYCAKYPYYYGTSHWYFDVWGQGTLVTVSSASTKGPSVFPLAPSSKSTSGGTAALGCLVKDYFPEPVTVSWNSGALTSGVHTFPAVLQSSGLYSLSSVVTVPSSSLGTQTYICNVNHKPSNTKVDKRV[in this place human IgG1 Fc with changes]GGGGSGGGGSGGGGSGGGGSQVQLVQSGAEVKKPGASVKVSCKASGYTFTNYDIIWVRQAPGQGLEWMGYINPYNDGTKYNEKFKGRVTMTRDTSTSTVYMELSSLRSEDTAVYYCARLLKYRRFRYYAIDYWGQGTTVTVSSGGSEGKSSGSGSESKSTGGSDIQMTQSPSSLSASVGDRVTITCRTSENVYSNLAWYQQKPGKAPKLLIYAASNLQSGVPSRFSGSGSGTDYTFTISSLQPEDIATYYCQHFWGSPFTFGQGTKLEIK light: DIQLTQSPSSLSASVGDRVTITCSASQDISNYLNWYQQKPGKAPKVLIYFTSSLHSGVPSRFSGSGSGTDFTLTISSLQPEDFATYYCQQYSTVPWTFGQGTKVEIKRTVAAPSVFIFPPSDEQLKSGTASVVCLLNNFYPREAKVQWKVDNALQSGNSQESVTEQDSKDSTYSLSSTLTLSKADYEKHKVYACEVTHQGLSSPVTKSFNRGEC",EC50 (pERK),human TrkB receptor [1],0.381 nM
same,EC50 (pTrkB),human TrkB receptor [1],2.16 nM
"TPP-19988 (bispecific antibody, human IgG1, kappa) heavy: EVQLVESGGGLVQPGGSLRLSCAASGYDFTHYGMNWVRQAPGKGLEWVGWINTYTGEPTYAADFKRRFTFSLDTSKSTAYLQMNSLRAEDTAVYYCAKYPYYYGTSHWYFDVWGQGTLVTVSSASTKGPSVFPLAPSSKSTSGGTAALGCLVKDYFPEPVTVSWNSGALTSGVHTFPAVLQSSGLYSLSSVVTVPSSSLGTQTYICNVNHKPSNTKVDKRV[in this place human IgG1 Fc with changes]GGGGSGGGGSDIQMTQSPSSLSASVGDRVTITCRTSENVYSNLAWYQQKPGKAPKLLIYAASNLQSGVPSRFSGSGSGTDYTFTISSLQPEDIATYYCQHFWGSPFTFGQGTKLEIKGGSEGKSSGSGSESKSTGGSQVQLVQSGAEVKKPGASVKVSCKASGYTFTNYDIIWVRQAPGQGLEWMGYINPYNDGTKYNEKFKGRVTMTRDTSTSTVYMELSSLRSEDTAVYYCARLLKYRRFRYYAIDYWGQGTTVTVSS light: DIQLTQSPSSLSASVGDRVTITCSASQDISNYLNWYQQKPGKAPKVLIYFTSSLHSGVPSRFSGSGSGTDFTLTISSLQPEDFATYYCQQYSTVPWTFGQGTKVEIKRTVAAPSVFIFPPSDEQLKSGTASVVCLLNNFYPREAKVQWKVDNALQSGNSQESVTEQDSKDSTYSLSSTLTLSKADYEKHKVYACEVTHQGLSSPVTKSFNRGEC",EC50 (pERK),human TrkB receptor [5],2.05 nM
same,EC50 (pTrkB),human TrkB receptor [5],7.83 nM
"TPP-19989 (bispecific antibody, human IgG1, kappa) heavy: EVQLVESGGGLVQPGGSLRLSCAASGYDFTHYGMNWVRQAPGKGLEWVGWINTYTGEPTYAADFKRRFTFSLDTSKSTAYLQMNSLRAEDTAVYYCAKYPYYYGTSHWYFDVWGQGTLVTVSSASTKGPSVFPLAPSSKSTSGGTAALGCLVKDYFPEPVTVSWNSGALTSGVHTFPAVLQSSGLYSLSSVVTVPSSSLGTQTYICNVNHKPSNTKVDKRV[in this place human IgG1 Fc with changes]GGGGSGGGGSGGGGSGGGGSDIQMTQSPSSLSASVGDRVTITCRTSENVYSNLAWYQQKPGKAPKLLIYAASNLQSGVPSRFSGSGSGTDYTFTISSLQPEDIATYYCQHFWGSPFTFGQGTKLEIKGGSEGKSSGSGSESKSTGGSQVQLVQSGAEVKKPGASVKVSCKASGYTFTNYDIIWVRQAPGQGLEWMGYINPYNDGTKYNEKFKGRVTMTRDTSTSTVYMELSSLRSEDTAVYYCARLLKYRRFRYYAIDYWGQGTTVTVSS light: DIQLTQSPSSLSASVGDRVTITCSASQDISNYLNWYQQKPGKAPKVLIYFTSSLHSGVPSRFSGSGSGTDFTLTISSLQPEDFATYYCQQYSTVPWTFGQGTKVEIKRTVAAPSVFIFPPSDEQLKSGTASVVCLLNNFYPREAKVQWKVDNALQSGNSQESVTEQDSKDSTYSLSSTLTLSKADYEKHKVYACEVTHQGLSSPVTKSFNRGEC",EC50 (pERK),human TrkB receptor [5],1.77 nM
same,EC50 (pTrkB),human TrkB receptor [5],7.37 nM
"TPP-22216 (bispecific antibody, human IgG1, kappa) heavy: QVQLVQSGGGLVQPGGSLRLSCAASGYDFTHYGMNWVRQAPGKGLEWVGWINTYTGEPTYAADFKRRFTFSLDTSKSTAYLQMNSLRAEDTAVYYCAKYPYYYGTSHWYFDVWGQGTLVTVSSASTKGPSVFPLAPSSKSTSGGTAALGCLVKDYFPEPVTVSWNSGALTSGVHTFPAVLQSSGLYSLSSVVTVPSSSLGTQTYICNVNHKPSNTKVDKRV[in this place human IgG1 Fc with changes]GGGGSGGGGSDIQMTQSPSSLSASVGDRVTITCRTSENVYSNLAWYQQKPGKAPKLLIYAASNLQSGVPSRFSGSGSGTDYTFTISSLQPEDIATYYCQHFWGSPFTFGCGTKLEIKGGSEGKSSGSGSESKSTGGSQVQLVQSGAEVKKPGASVKVSCKASGYTFTNYDIIWVRQAPGQCLEWMGYINPYNDGTKYNEKFKGRVTMTRDTSTSTVYMELSSLRSEDTAVYYCARLLKYRRFRYYAIDYWGQGTTVTVSS light: DIQLTQSPSSLSASVGDRVTITCSASQDISNYLNWYQQKPGKAPKVLIYFTSSLHSGVPSRFSGSGSGTGFTLTISSLQPEDFATYYCQQYSTVPWTFGQGTKVEIKRTVAAPSVFIFPPSDEQLKSGTASVVCLLNNFYPREAKVQWKVDNALQSGNSQESVTEQDSKDSTYSLSSTLTLSKADYEKHKVYACEVTHQGLSSPVTKSFNRGEC",concentration for full inhibition of VEGF-induced HRMEC proliferation,human VEGF-A [3],0.25 nM
same,TrkB-phosphorylation efficacy (AlphaLISA counts),human TrkB receptor [6],8410 AlphaLISA counts
same,TrkB-phosphorylation efficacy relative to parental clone without CC bridge (%),human TrkB receptor [6],149%
same,"TrkB-phosphorylation potency (EC50, nM)",human TrkB receptor [6],4.33 nM
same,TrkB-phosphorylation efficacy (AlphaLISA counts),rat TrkB receptor,25800 AlphaLISA counts
same,TrkB-phosphorylation efficacy relative to parental clone without CC bridge (%),rat TrkB receptor,122%
same,"TrkB-phosphorylation potency (EC50, nM)",rat TrkB receptor,3.31 nM
